According to the supplement of paper PMC12632987:
Over roughly 2,300 sequences, “median log2 fold change of GCK-ALFA target abundance (FLAG IP / Myc IP barcode read proportion)” has its median near 0.095; the lowest 2% begin near -0.47. The list shows a part of the results.

B1: LC3A_28_896 (protein)
chain: MSALESAEEALKKVKEAVAAGDQEPLVLEVKAPSKEEDTEKLLELLEEIAKEASKLKGVTIVIDIDEDVSEENKNKIIDKAEELEEKYPNVTVIIALPES
B2: LC3A_28_1336 (protein)
chain: SIAEKIIEEAEKKIKEVAESGKPEVIEIEIPGSITEEEAKEIMDAILETAKKYKLPKGTAIIINVDADVSQEVLDVLAEGAERIEKEVPGVTVIIALDEE
B3: LC3A_17_579 (protein)
chain: SAEVEELYKKALEVLKKAAEFAAKHDEEAAKKLKELIKELEKAKETKDDKEILEKIAELMDEAAEILDELEHLDPEEATLLSMEAEGVAIEAESLLLKLE
B4: LC3A_28_759 (protein)
chain: MDVAAEVAAAIAAAKAAAAAGEEAVITITVPAGATQADVDTVIAGLETIAEITKDMESTSIVIDVEAGVSQENIDRLIDKGEEIEKKYPNVTVIFALDED
B5: LC3A_3_1735 (protein)
chain: MAARLAAARARLEALGFSPEVIAAALAVVKALLARGFEKAVEVLLAELEELKDLPDDILIAMLEDIKAYVETNDVTEEEVIAKIKEEARIARNEAEIEEL
B6: LC3A_free_46_2410 (protein)
chain: YVAEIDVDALAETKEKAEEFAKKIEEAAKEIAKEYGIEVEIEVKISKDEDGTYFVEIEITLEAETKETLEKAVNELIDKIEEIAEELGVSIIISYEISEA
B7: LC3A_free_46_2401 (protein)
chain: YKAEILIDALAESREKAEELAKRLKEAAEKIAKKYNAKVEIKVKIEELPDGSVFVEIEIIVEAEDKETIEKFVNDLIEEAEKIAEELGASLIISYEIEEL
B8: LC3A_3_1390 (protein)
chain: FEELKKEAEKILKSFGRSEEVIEATKKVLEELEKKGYLEAAKKFVEELKKMKDLSDEILLDFIEDVLNYIKENDWSEEEVVEFIKEEARTAINDHEIIEL
B9: LC3A_free_46_2341 (protein)
chain: GKLEVLVDILADTEEKAKKAVEALVKKFKELAKEYGAKLEIEVEISKLEDGSYYAEIKATFSGLTKEQAEAIENEIIDKVDEISEKYGVSAIVSTEFIET
B10: LC3A_3_1742 (protein)
chain: MEEKLAEIEKELKELGFSEETIEAALEVVKLLLERGFEEAVKKLLEELKKLKDVDDEILLAMLEDIKRKIETEDLNEEEVIEVIEEEARIARNESEIIEL
B11: LC3A_28_842 (protein)
chain: SKTEENIKKALAEAKEAAEKGESKVITLKVYKGDTEEEIDKIIETLEEIAEILKDLPNQAIIIEFEEPIDPEHQDKIIDKAEEIEKKYPNITVIIALPEE
B12: LC3A_132_273 (protein)
chain: GEEKAKELKKKIKELIEELKKNKDNLEKVKKLVKEIEKLLKEAEKELSPELVKKVAEYTAELADEVAEEYEAAGKKDQARLVTNLSMYADGIAIEAELKL
B13: LC3A_132_262 (protein)
chain: SEELLKEAEEEIFKLIDEIVKLLQEGKNPWPKIVELDKKAEEYAEKLSLEETEKLVEKAKEYAKERFEKELDPNNEEARRALDIIEMLLEGVLIEKELRE
B14: LC3A_28_1177 (protein)
chain: NNVEASSAAALAEARAAAAAGEPAVITVHVPGNATQADTDLVNATIREIADILAGIPGSAIVVDVDSGVSQANLDAIMDTGEAVEAEHPDISVIFALDEE
B15: LC3A_28_1274 (protein)
chain: SHIEEELKKAREEAKAAVAAKEPQVITITVDGNATEEDIEKVMEAMEEIAELLKDVKDQAIVINVNKGVKQENIDKLADKAEEIEKKYPNVTVILALDED
B16: LC3A_3_1496 (protein)
chain: REELLEEARRVLEERGATPEQIEAVLRALERILEKGLEETVRELIRLFRENRDLSPEQILTTVLIVEDEVEEKNLSEEEAIEYARRVLRDVAEIEEIDEE
B17: LC3A_free_46_2427 (protein)
chain: VEVTIDLLLEGDDEEVLKKAVEEIKKAAKEIAEKYNAELEIKVEFSKDPDGNHFALIEIKIKTESEEIAEKIANELIDSVEEITEKYGVSSIISVEIIKK
B18: LC3A_28_1084 (protein)
chain: SEIEAQLKAAKAALEEAKAAGEEAYLEITVPETATQEDIDKVIKALKEFGELAKDAKKVSVVINLDGKIPQEFIDKLADAAEEIEEKVPNVTVIIALPDE
B19: LC3A_free_39_2229 (protein)
chain: SEEELEEAIKKLAELAGLPYEEVREKIEEIQKIAGLTTEQMLEIVKELIEAVEAGADAKEILEEAVKLAKELKEQGKTPEEIFEAILELIRDYRDLVPLD
B20: LC3A_28_911 (protein)
chain: SAIEESTERAIAEIEEAAARGEPAVVTLDATHPDVEEAKRLTREALERLREVALKHDGVTIIVDVPGHNYDAISAVADEADEALRKENPSNHIIVALDED
B21: LC3A_3_1399 (protein)
chain: FEKIKKEIIEELKKYGKSEEVIKAAKEAFELLEKKGYLKAAETLLEEVKKMENVSDEIMLDFFNEVKKLLETEDLSEEEVVEKIKELAKVALNEQEIIEL
B22: LC3A_132_291 (protein)
chain: QQEKAEELKKEIKEIVEEMKENIDDEEKVRKLLEELEKLMKRAEKELSPELLAEVFEELSELLEELSEEFDEAGKEDLALEADSLAIEAASLALRAKEKI
B23: LC3A_13_333 (protein)
chain: TIDIEVETPEELREKVGAALEAHPGETINVTATVKNEEEAEAIAEVLEELIDLAIEKGNTLNITLRGPKDVVNYAALLIGSHVFEHIDTANVSISTEVTP
B24: LC3A_free_39_2237 (protein)
chain: SMEEIDKLIKEIAEEGGIDYEYVREKLEEIKEIGELSDEQMLEIVKALLEAVKEGADAKEILEEILALTKELKAQGKSPEEILEAILETIEDYRNLVPLE
B25: LC3A_28_791 (protein)
chain: MEIEEQLERAREEVERALARGEEALVEIKVPSTTTLEDAKLLVEGLKEIAELGSSLPSLSIIIDVEGGLAQEVIDLLMEGGEEIEEKYPNVTVVIALEEE
B26: LC3A_3_1914 (protein)
chain: MEEELKELRELLKKLGHSEEVIEKFLEAAELLLKAGDKEGFELLKEMAKALKGLDESTQLAFAEDLLAELKKLGDDKEGRLKAAKHFLELAKNENEIIEI
B27: LC3A_78_2089 (protein)
chain: KSAFIVAATPETREEGERLAAKRTDYDEVVVVDLSDLEEVVTKYKDYDEIEVVIVAKTLEEVEEAEKKIKEILSDKNISSIYEYDEETGTWIGTVLVTKK
B28: LC3A_3_1410 (protein)
chain: LDEEVAALEALLRAAGHSEETIAAVRELVAEFRARGADEQAREALALVREAADLPSERLLEVLREVLRALREEGLSPEEAVALLRELLAIARAEQEIIEL
B29: LC3A_3_1559 (protein)
chain: IEEEKKKALEELKEAGKSEEVIKKAEETLNLLIEKGYEEAAKTFIEELKELIDLSDELLLDFLEEVLNYIKTKDLNEEEVIKKIKEIARITKNEGEIEEL

The binders below were run against MAP1LC3A, Q9H492 (assay: median log2 fold change of GCK-ALFA target abundance (FLAG IP / Myc IP barcode read proportion) (log2 ratio); each designed protein is fused to an ALFA-tag nanobody in HEK293 cells to bring the named protein to FLAG-tagged glucokinase (GCK); Myc marks an untargeted standard; higher = target protein stabilised (more abundant)). Settings: target protein: 3xFLAG-MCP-GCK-ALFA reporter; HEK293 landing pad (RPLP).
Procedure, shortened: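 Binders fused to an ALFA nanobody were recombined as a library into HEK293 landing-pad cells, which were induced with 2 μg mL^−1 doxycycline and then transfected to express a FLAG-tagged target and a Myc-tagged standard. After 48 h, circular RNA barcodes recovered by anti-FLAG and anti-Myc immunoprecipitation of lysates were reverse transcribed, amplified and sequenced. Each binder's target abundance is the median log2 ratio of FLAG to Myc barcode read proportions, from barcodes present at ≥10^−7 in both replicates, binders carrying ≥3 barcodes per replicate, a 10^−6 pseudocount and pooled replicates.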
With B1 the “median log2 fold change” value was -0.164.
In the case of B2, the “median log2 fold change” value is reported as -0.0655.
In the case of B3, the “median log2 fold change” value is reported as 0.0186.
In the case of B4, the “median log2 fold change” value is reported as -0.341.
With B5 the “median log2 fold change” value was 0.306.
With B6 the “median log2 fold change” value was 0.0318.
In the case of B7, the “median log2 fold change” value is reported as -0.0885.
For B8, the “median log2 fold change” value was 0.0169.
With B9 the “median log2 fold change” value was -0.272.
In the case of B10, the “median log2 fold change” value is reported as 0.321.
B11 was tested, and the “median log2 fold change” value was -0.297.
In the case of B12, the “median log2 fold change” value is reported as 0.243.
For B13, the “median log2 fold change” value was 0.129.
For B14, the “median log2 fold change” value was -0.259.
In the case of B15, the “median log2 fold change” value is reported as -0.00837.
B16 was tested, and the “median log2 fold change” value was 0.0947.
B17 was tested, and the “median log2 fold change” value was 0.222.
B18 was tested, and the “median log2 fold change” value was 0.204.
With B19 the “median log2 fold change” value was 0.121.
In the case of B20, the “median log2 fold change” value is reported as 0.0755.
In the case of B21, the “median log2 fold change” value is reported as 0.146.
For B22, the “median log2 fold change” value was -0.27.
With B23 the “median log2 fold change” value was -0.0621.
B24 was tested, and the “median log2 fold change” value was 0.0156.
B25 was tested, and the “median log2 fold change” value was 0.117.
With B26 the “median log2 fold change” value was 0.143.
For B27, the “median log2 fold change” value was 0.0697.
B28 was tested, and the “median log2 fold change” value was 0.205.
In the case of B29, the “median log2 fold change” value is reported as -0.0506.
